Data: PubChem BioAssay AID488969 (Vanderbilt High Throughput Screening Facility, 2010)
The full ranking holds about 110,000 compounds; the median of “z-score” is about -0.1, and the highest 2% start at about 2. This is one part of the list.

target: Metabotropic glutamate receptor 8 (Rattus norvegicus) (UniProt P70579); assay: mGluR8 Gi/Go-coupled signaling modulation – cell-based, rat, thallium flux, HTS, primary screen (AID 488969); conditions: HEK293 rat mGluR8, GIRK (G protein-gated inwardly rectifying potassium channel) thallium flux, FluoZin2; at 10 µM; stronger effect = higher value; submaximal glutamate (EC20) added with thallium
Sequence of UniProt P70579 (P70579 whole entry, looked up): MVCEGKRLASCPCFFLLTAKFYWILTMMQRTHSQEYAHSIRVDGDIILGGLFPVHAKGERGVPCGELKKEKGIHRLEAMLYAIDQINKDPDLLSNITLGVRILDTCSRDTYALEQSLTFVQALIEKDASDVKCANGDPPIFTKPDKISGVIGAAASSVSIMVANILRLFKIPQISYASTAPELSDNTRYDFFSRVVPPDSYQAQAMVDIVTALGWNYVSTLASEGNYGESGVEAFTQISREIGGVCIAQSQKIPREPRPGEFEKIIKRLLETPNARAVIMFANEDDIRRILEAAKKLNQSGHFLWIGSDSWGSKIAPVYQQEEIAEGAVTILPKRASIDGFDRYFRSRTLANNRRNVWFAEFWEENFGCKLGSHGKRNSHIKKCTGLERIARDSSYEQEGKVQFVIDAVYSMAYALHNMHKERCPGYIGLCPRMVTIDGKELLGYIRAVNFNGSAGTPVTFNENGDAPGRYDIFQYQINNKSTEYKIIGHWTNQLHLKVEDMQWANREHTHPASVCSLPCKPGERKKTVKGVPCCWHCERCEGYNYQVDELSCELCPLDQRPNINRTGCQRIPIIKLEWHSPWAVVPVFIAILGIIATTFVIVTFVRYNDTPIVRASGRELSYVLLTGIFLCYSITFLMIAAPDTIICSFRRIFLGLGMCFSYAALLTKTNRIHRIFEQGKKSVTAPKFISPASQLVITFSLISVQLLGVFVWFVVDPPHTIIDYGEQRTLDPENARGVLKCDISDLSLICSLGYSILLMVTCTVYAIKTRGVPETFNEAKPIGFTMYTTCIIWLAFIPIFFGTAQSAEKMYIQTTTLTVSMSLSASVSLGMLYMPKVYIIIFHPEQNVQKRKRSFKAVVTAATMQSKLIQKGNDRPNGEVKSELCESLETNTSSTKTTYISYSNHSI

Compound	z-score
Oc1ccccc1C1=NOC(O)(C(F)F)C1 (centres undefined)	1.11
CCSc1nnc(NC(=O)CSc2nnc(CNC(=O)c3ccccc3F)o2)s1	-0.0692
COc1ccc(CN(C2CCCC2)S(=O)(=O)c2ccc(-n3cnnn3)cc2)cc1	-1.17
COc1ccc(NC(=O)C(NC(=O)c2ccccc2)C(C)C)cc1 (centres undefined)	0.116
Cc1nc(NC(=O)c2ccco2)sc1-c1csc(Nc2ccc(Cl)cc2)n1	0.0558
O=C1Nc2ccccc2C12OC1CCCCC1O2 (centres undefined)	-0.0948
CN(/N=C/c1ccncc1)c1cnn(-c2ccc(F)c(Cl)c2)c(=O)c1Cl	-0.359
Cc1ccc(S(=O)(=O)Nc2ccccc2-c2ccccc2)cc1	0.418
Cc1ccc(-c2c3c(=O)n(C)c(=O)n(C)c3c3nnc4ccccc4n23)cc1	-0.843
O=C(Nc1cccc(NC(=O)c2ccc(Br)o2)n1)c1ccc(Br)o1	-0.11
CN1C(=O)NC2(O)C(=O)c3ccccc3C12O (centres undefined)	0.246
CC(NC(=O)C(C(=O)c1cccc([N+](=O)[O-])c1)n1cc(Cl)ccc1=O)c1ccccc1 (centres undefined)	0.926
Cc1ccc(NC(=O)c2csnn2)c(C)c1	0.804
CCc1nc2ccccc2c(C(=O)OCc2nnc(-c3ccccc3)o2)c1C	-0.557
O=C(CCC(=O)Nc1ccc(Oc2ccccc2)cc1)NCCO	-0.219
O=C(NCCSc1ccccc1)c1cncc(Br)c1	0.24
CCC(=O)Nc1c2c(nc3c1CCC3)CCCC2	-0.351
O=C(CSc1nnc(-c2ccc(Br)cc2)n1CCc1ccccc1)NC1CCS(=O)(=O)C1 (centres undefined)	-0.076
O=C(C1CCCN(Cc2ccccc2)C1)N1CCc2ccccc2C1 (centres undefined)	0.595
CC1CCCCN1Cc1nc2c(c(=O)n(C)c(=O)n2C)n1CCc1ccccc1 (centres undefined)	-0.817
CC(=O)Cn1c(N2CCC(Cc3ccccc3)CC2)nc2c1c(=O)[nH]c(=O)n2C	-0.571
CCOc1ccc(CC(=O)NCc2cn3c(C)csc3n2)cc1	-0.457
Cc1c(Cl)cccc1N=Cc1ccc([N+](=O)[O-])s1	-0.206

Compound	z-score
Cc1c(NC(=S)NC(NC(=O)C(C)(C)C)C(Cl)(Cl)Cl)c(=O)n(-c2ccccc2)n1C (centres undefined)	-0.237
Cc1c(NC(=O)C(C)c2ccc(CC(C)C)cc2)c(=O)n(-c2ccccc2)n1C (centres undefined)	-0.175
CC(=O)c1c(OCC(=O)O)ccc2c(C)cc(=O)oc12	0.443
COc1ccc(NC(=O)C2CCC(=O)N2S(=O)(=O)c2ccc(C)cc2)c(OC)c1 (centres undefined)	0.0154
O=S(=O)(Nc1ccc(F)cc1)N1CCCCCC1	0.113
Cc1ccc(NC(=O)c2ccccc2N(C)S(C)(=O)=O)cc1C	-0.0366
Cc1ccccc1OCC(=O)NNC(=O)c1ccc(-c2ccccc2)cc1	0.207
Nc1nnc(Cc2ccccc2)s1	-0.122
CCOC(=O)C1C2C=CC3(CN(CCc4ccccc4)C(=O)C13)O2 (centres undefined)	-0.0471
O=C(O)C1CC=CCC1C(=O)NCc1cn2ccccc2n1 (centres undefined)	-0.161
O=c1cc(N2CCC3(CC2)OCCO3)[nH]c(=O)n1-c1ccc(Br)cc1	0.00229
CCC(C)NS(=O)(=O)c1ccc(OCC(=O)Nc2ccc3c(c2)OCO3)cc1 (centres undefined)	1.04
CCOc1ccc2nc(N3CCC(C(=O)N4CCN(C5CCCCC5)CC4)CC3)sc2c1	0.23
C#CCn1c(=NC(=O)CN2C(=O)CCC2=O)sc2cccc(C)c21	-0.276
COCc1cc(/C=N\NC(=O)COc2ccc(Cl)cc2)ccc1OC	-0.355
Cc1nn(CC(=O)NCCc2ccc(Cl)cc2Cl)c(C)c1[N+](=O)[O-]	-0.67
O=C(CSc1nnc2ccccn12)N1CCOCC1	0.286
CCOc1cc(-c2nc(-c3ccc(C)nc3OC)no2)cc(OCC)c1OCC	-0.11
Cc1ccc(Nc2nc(N)nc(CC#N)n2)cc1	0.115
NS(=O)(=O)c1ccc(NC(=O)CSc2nnc(COc3ccccc3Cl)n2C2CC2)cc1	0.288
Cc1ccc(C(=O)OCC(=O)Nc2sc3c(c2C#N)CCCC3)cc1NC(=O)c1ccco1	2.03
CC(=O)c1c(C)[nH]c(C(=O)CSc2nc3ccccc3n2C)c1C	0.0771
Cc1cccc(OCCCC(=O)Nc2ccc(N3CCCCC3)cc2)c1C	0.0131

Compound	z-score
CCC(=O)NS(=O)(=O)c1cccnc1Nc1ccccc1Cl	-0.483
CC(CCc1ccco1)NC(=O)c1cc2c(-c3ccccc3F)nn(C)c2s1 (centres undefined)	-0.263
CCC12CN(S(=O)(=O)c3ccc(C)cc3)CC(CC)(CN(S(=O)(=O)c3ccc(C)cc3)C1)C2=O	-0.0813
CC1=C(/C=C/C(=O)O)C(C)(C)CCC1	-0.0012
CCOc1ccccc1N1CCN(S(=O)(=O)c2ccc3c4c(cccc24)C(=O)N3)CC1	0.499
O=C(NCc1ccccc1)c1cnc(-c2ccccn2)nc1C(F)(F)F	-0.365
Cc1ccsc1/C=N/N=C1\C(=O)Nc2ccccc21	-0.398
CCC(=O)N(Cc1cccs1)C1CCOC(C)(C)C1 (centres undefined)	0.214
Cc1ccn2c(-c3csc(NCc4ccccc4)n3)c(C)nc2c1	-0.461
COc1ccc(NC(=O)C2CCCN(S(=O)(=O)c3cccnc3)C2)c(OC)c1 (centres undefined)	0.47
Cc1nc2ccc(NC(=O)c3nn(CC(C)C)c(=O)c4ccccc34)cc2s1	-1.21
CCCCOC(=O)C1CCCC(C)N1 (centres undefined)	-0.0495
O=c1[nH]cnc2c1C1(CCCC1)Cc1ccccc1-2	-0.476
CCOc1ccccc1CNC(=O)c1cc2oc3ccccc3c2n1CC	0.192
CC1(C)CC(=O)C=C(NCCCN2CCCC2=O)C1	0.368
COc1ccc(C(=O)Oc2ccc(F)cc2C(=O)/C=C/c2ccc(OC)c(OC)c2)cc1	-0.437
N#Cc1c(NC(=O)CSc2ncccn2)oc(-c2ccccc2)c1-c1ccccc1	-2.01
Cc1cc(C)nc(Nc2n[nH]c(-c3ccc(N)cc3)n2)n1	-0.401
CCC(C)C(Nc1ccc(C(=O)OC)cc1[N+](=O)[O-])C(=O)OC (centres undefined)	0.499
Cc1ccc(S(=O)(=O)Oc2ccccc2N2C(=O)C3CC=CCC3C2=O)cc1 (centres undefined)	-0.0558
COc1cccc(C(c2sc3ncnn3c2O)N2CCN(C(=O)c3ccco3)CC2)c1 (centres undefined)	-0.372
Cc1ccc(NC(=O)CSc2n[nH]c(C)c2[N+](=O)[O-])cc1	-0.0123
COc1ccc(OC)c(C(=O)c2nc3c(n2O)CCCCC3)c1	-0.156

Compound	z-score
CCNC(=S)N/N=C/c1ccc(OCC(=O)Nc2ccc(C)cc2)cc1	-0.105
CCOc1ccc(N2CC(C(=O)Nc3ccccc3F)CC2=O)cc1 (centres undefined)	-0.15
Cc1ccc([N+](=O)[O-])cc1N/C=C/C(=O)c1ccco1	-0.039
COCCNC(=O)c1cccc(C)c1[N+](=O)[O-]	-0.118
COc1ccc(/C(N)=N/OC(=O)CSc2ccccc2)cc1OC	-0.636
Cc1ccccc1NC(=O)c1sc(Cl)nc1-c1ccccc1	-0.159
O=C(Nc1cccn2ncnc12)c1ccc(Cl)cc1Cl	-0.224
O=C(/C=C/c1ccccc1)NCCSCc1ccc(Cl)cc1	-0.0486
CCCC(=O)N(c1ccc2oc(=O)sc2c1)S(=O)(=O)c1ccccc1	0.341
Cc1cccc(C2CC(c3ccccc3)Nc3nc(N)nn32)c1 (centres undefined)	0.229
O=C(c1ccco1)N1CCN(CC2CC3C=CC2C3)CC1 (centres undefined)	0.296
O=C(CCC(=O)N1CCN(S(=O)(=O)c2ccc(Cl)cc2)CC1)NCc1ccccc1	-0.172
CC(Sc1nnc(-c2cccs2)n1Cc1ccccc1)C(=O)NCc1ccc2c(c1)OCO2 (centres undefined)	0.0555
COc1cc(C=O)ccc1OCCOCCOc1ccc(Cl)cc1	-0.376
CC(C)n1c(NCc2cc(Cl)ccc2O)nc2ccccc21	-0.0481
N#Cc1nc(COc2ccccc2F)oc1NCc1ccc(F)cc1	-0.0335
CN(C)CCCN(C(=O)c1sc2ccccc2c1Cl)c1nc2c(F)cccc2s1	-0.149
C=CCNc1nc(Cl)nc(Nc2ccc(OC)cc2)n1	-0.179
N#CC(C#N)=Cc1cc2ccccc2nc1N1CCCCC1	-0.58
CCc1cc[n+](C2=C([O-])c3ccccc3C(=O)/C2=N\S(=O)(=O)c2cccs2)cc1	-0.161
O=C1CCCC2=C1C1(CCCCC1)N=C(Nc1nc3ccccc3o1)N2	-0.209
O=C(CSc1nc(O)cc(=O)[nH]1)C1CC1	-0.0834
CC(=O)c1ccc(OCCCC(=O)NC2=NCCS2)cc1	-0.155

Compound	z-score
CCc1cc2c(=O)c(-c3nc4ccccc4n3C)c(COCC(=O)O)oc2cc1O	-0.454
O=c1[nH]n(-c2cccc(Cl)c2)c2ncccc12	-0.272
Cc1ccc(N(CC(=O)NCc2ccncc2)S(C)(=O)=O)cc1Cl	1.2
Nc1nccnc1C(=O)OCC(=O)Nc1cccc(S(=O)(=O)N2CCCCC2)c1	-0.0359
Cc1ccccc1Nc1nc2ccccc2s1	0.103
Nc1cc(-c2ccc(Br)cc2)nn1S(=O)(=O)c1cccc2nsnc12	0.00233
COc1cc(NC(=O)C2CC(c3cccc(OC)c3OC)=NO2)cc(OC)c1OC (centres undefined)	0.254
O=C(COc1nnc2ccccn12)N1CCN(S(=O)(=O)c2ccccc2)CC1	0.105
CCOC(=O)Cc1c(C)nc2c(C#N)c(C)nn2c1C	0.174
CC(NC(=O)CC(O)(C(F)(F)F)C(F)(F)F)c1ccccc1 (centres undefined)	-0.166
O=C(O)CSc1nc2ccc(Cl)cc2[nH]1	-0.0827
CCn1nnc(-c2ccccc2NC(=O)c2cnccn2)n1	-0.166
CCn1nc([N+](=O)[O-])c(C(C#N)c2nc3ccccc3n2C)c(Cl)c1=O (centres undefined)	-0.682
COC(=O)c1sc2nc(SCc3ccccc3C#N)n(N)c(=O)c2c1C	0.247
CC(C)CSc1nsc(N)n1	-0.123
Cc1ccccc1NC(=O)NCc1ccco1	0.207
COc1cccc(/C=N/Nc2nnc(C)n2N)c1OCc1ccccc1Cl	-0.451
CC(CC(=O)Nc1ccccc1C(F)(F)F)c1ccccc1 (centres undefined)	-0.0979
CC(CC#CCN1CCOCC1)OCCC#N (centres undefined)	0.79
O=C(Cn1ccc2ccccc2c1=O)NCCC(=O)NC1CCN(Cc2ccccc2)CC1	0.439
N=c1c2c3c(sc2ncn1CCCO)CCCC3	-0.123
Cn1ccnc1SCC(=O)c1cc2ccccc2o1	0.608
